Assay results from the supplement of paper PMC11741623.
Some of the results follow. Interaction screen of human proteins with wild-type SARS-CoV-2 proteins by split-DHFR complementation in yeast, 1 µg/mL methotrexate. Value = fitness of the pair (three or more lineages) minus that of the viral protein without a human partner, on a scale set by negative (0) and fused positive (1) controls, mean of up to three cultures; higher = more likely to interact. Active = false discovery rate below 0.05 (one-sided t-test) in at least one culture. Nearly all pairs are not hits, and differences among them are mostly noise (correlation between cultures about 0.3); most hits were seen in one culture only. Human sequences are the Swiss-Prot entries looked up by gene name; the clone may be another isoform. NSP2 values were corrected by the authors for a growth advantage. Listed are human proteins with a hit and a random twelfth of the others.

Experiments:
Experiment in all cases: yeast fitness gain over the viral ORF with no human partner (scaled fitness); higher = more likely to interact
[1] = target: SARS-CoV-2 NSP10
Description: (§1)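 Split mouse DHFR complementation in pooled diploid yeast: human ORFeome clones carry one fragment and viral ORFs the other; barcoded lineages compete in 1 µg/mL methotrexate and fitness is read by barcode sequencing in up to three cultures.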

[2] = target: SARS-CoV-2 NSP12
Description: as §1

[3] = target: SARS-CoV-2 NSP13
Description: as §1

[4] = target: SARS-CoV-2 ORF10
Description: as §1

[5] = target: SARS-CoV-2 ORF3A
Description: as §1

[6] = target: SARS-CoV-2 ORF6
Description: as §1

[7] = target: SARS-CoV-2 ORF8
Description: as §1

[8] = target: SARS-CoV-2 ORF9B
Description: as §1

[9] = target: SARS-CoV-2 NSP5
Description: as §1

[10] = target: SARS-CoV-2 ORF7B
Description: as §1

[11] = target: SARS-CoV-2 ORF7A
Description: as §1

[12] = target: SARS-CoV-2 S
Description: as §1

[13] = target: SARS-CoV-2 NSP15
Description: as §1

[14] = target: SARS-CoV-2 NSP16
Description: as §1

[15] = target: SARS-CoV-2 NSP2
Description: as §1

[16] = target: SARS-CoV-2 NSP6
Description: as §1

[17] = target: SARS-CoV-2 NSP7
Description: as §1

[18] = target: SARS-CoV-2 NSP8
Description: as §1

[19] = target: SARS-CoV-2 NSP9
Description: as §1

[20] = target: SARS-CoV-2 ORF3B
Description: as §1

[21] = target: SARS-CoV-2 ORF9Bwu (the 73-codon ORF)
Description: as §1

Measured: yeast fitness gain

B1: ODF2, Q5BJF6 (protein)
chain: MSASSSGGSPRFPSCGKNGVTSLTQKKVLRAPCGAPSVTVTKSHKRGMKGDTVNVRRSVRVKTKVPWMPPGKSSARPVGCKWENPPHCLEITPPSSEKLVSVMRLSDLSTEDDDSGHCKMNRYDKKIDSLMNAVGCLKSEVKMQKGERQMAKRFLEERKEELEEVAHELAETEHENTVLRHNIERMKEEKDFTILQKKHLQQEKECLMSKLVEAEMDGAAAAKQVMALKDTIGKLKTEKQMTCTDINTLTRQKELLLQKLSTFEETNRTLRDLLREQHCKEDSERLMEQQGALLKRLAEADSEKARLLLLLQDKDKEVEELLQEIQCEKAQAKTASELSKSMESMRGHLQAQLRSKEAENSRLCMQIKNLERSGNQHKAEVEAIMEQLKELKQKGDRDKESLKKAIRAQKERAEKSEEYAEQLHVQLADKDLYVAEALSTLESWRSRYNQVVKEKGDLELEIIVLNDRVTDLVNQQQTLEEKMREDRDSLVERLHRQTAEYSAFKLENERLKASFAPMEDKLNQAHLEVQQLKASVKNYEGMIDNYKSQVMKTRLEADEVAAQLERCDKENKILKDEMNKEIEAARRQFQSQLADLQQLPDILKITEAKLAECQDQLQGYERKNIDLTAIISDLRSRIEHQGDKLEMAREKHQASQKENKQLSLKVDELERKLEATSAQNIEFLQVIAKREEAIHQSQLRLEEKTRECGTLARQLESAIEDARRQVEQTKEHALSKERAAQNKILDLETQLSRTKTELSQLRRSRDDADRRYQSRLQDLKDRLEQSESTNRSMQNYVQFLKSSYANVFGDGPYSTFLTSSPIRSRSPPA
inactive: [1] -0.213 | [2] -0.0268 | [3] -0.234 | [4] -0.0319 | [5] -0.0629 | [6] 0.00481 | [7] -0.0301 | [8] 0.00503

B2: PSG6, Q00889 (protein)
chain: MGPLSAPPCTQHITWKGLLLTASLLNFWNLPTTAQVIIEAKPPKVSEGKDVLLLVHNLPQNLTGYIWYKGQMTDLYHYITSYVVHGQIIYGPAYSGRETVYSNASLLIQNVTQEDAGSYTLHIIKRGDGTGGVTGYFTVTLYSETPKPSISSSNLNPREVMEAVRLICDPETPDASYLWLLNGQNLPMTHRLQLSKTNRTLYLFGVTKYIAGPYECEIRNPVSASRSDPVTLNLLPKLPMPYITINNLNPREKKDVLAFTCEPKSRNYTYIWWLNGQSLPVSPRVKRPIENRILILPSVTRNETGPYQCEIRDRYGGIRSNPVTLNVLYGPDLPRIYPSFTYYRSGENLDLSCFADSNPPAEYSWTINGKFQLSGQKLFIPQITTNHSGLYACSVRNSATGKEISKSMIVKVSETASPQVTYAGPNTWFQEILLL
inactive: [1] -0.152 | [3] -0.219 | [9] -0.0989 | [6] -0.0907 | [10] 0.32 | [7] -0.678 | [8] -0.151

B3: UGP2, Q16851 (protein)
chain: MSRFVQDLSKAMSQDGASQFQEVIRQELELSVKKELEKILTTASSHEFEHTKKDLDGFRKLFHRFLQEKGPSVDWGKIQRPPEDSIQPYEKIKARGLPDNISSVLNKLVVVKLNGGLGTSMGCKGPKSLIGVRNENTFLDLTVQQIEHLNKTYNTDVPLVLMNSFNTDEDTKKILQKYNHCRVKIYTFNQSRYPRINKESLLPVAKDVSYSGENTEAWYPPGHGDIYASFYNSGLLDTFIGEGKEYIFVSNIDNLGATVDLYILNHLMNPPNGKRCEFVMEVTNKTRADVKGGTLTQYEGKLRLVEIAQVPKAHVDEFKSVSKFKIFNTNNLWISLAAVKRLQEQNAIDMEIIVNAKTLDGGLNVIQLETAVGAAIKSFENSLGINVPRSRFLPVKTTSDLLLVMSNLYSLNAGSLTMSEKREFPTVPLVKLGSSFTKVQDYLRRFESIPDMLELDHLTVSGDVTFGKNVSLKGTVIIIANHGDRIDIPPGAVLENKIVSGNLRILDH
inactive: [1] -0.0618 | [3] -0.0531 | [4] 0.0451 | [6] -0.237 | [7] -0.24 | [8] 0.0593

B4: TMEM236, Q5W0B7 (protein)
chain: MASGRLIKFVVFELLEFAAFSIPTLVITEQFATAYQGTRARSDNTHYWLIISCSIAYVALVTLLIWVPVKVILHKKRYIYRKIKGWRPVLMMCVVLTTLPCLTFSIAVTEVQKSINGSADVLPDMLPDLPVSLVLLSLIMVDIIEKLRIYPLRGSQKSSENGHIHSTSLQHIKTVTEQVRQSPENAASPQATNSTQVSQPSGAMTRSQESVFMGPQEPSCDSGILRMMSRRDVRAELFLWSFLLWSDTIEMVRVAGHPNVYKSSWLYPVYIFSFISLLRITFTPQNPLLNSLSVLLQDLPFVFVRLGLIIALGTITPVLGLCKNILVTLSYIYFNYLTRIRIFSAFEMSPF
inactive: [1] -0.0173 | [2] -0.0286 | [3] 0.126 | [6] -0.0954 | [11] -0.118 | [7] 0.0533 | [12] 0.0774

B5: ACD, Q96AP0 (protein)
chain: MAGSGRLVLRPWIRELILGSETPSSPRAGQLLEVLQDAEAAVAGPSHAPDTSDVGATLLVSDGTHSVRCLVTREALDTSDWEEKEFGFRGTEGRLLLLQDCGVHVQVAEGGAPAEFYLQVDRFSLLPTEQPRLRVPGCNQDLDVQKKLYDCLEEHLSESTSSNAGLSLSQLLDEMREDQEHQGALVCLAESCLTLEGPCTAPPVTHWAASRCKATGEAVYTVPSSMLCISENDQLILSSLGPCQRTQGPELPPPDPALQDLSLTLIASPPSSPSSSGTPALPGHMSSEESGTSISLLPALSLAAPDPGQRSSSQPSPAICSAPATLTPRSPHASRTPSSPLQSCTPSLSPRSHVPSPHQALVTRPQKPSLEFKEFVGLPCKNRPPFPRTGATRGAQEPCSVWEPPKRHRDGSAFQYEYEPPCTSLCARVQAVRLPPQLMAWALHFLMDAQPGSEPTPM
inactive: [1] 0.0133 | [2] 0.0322 | [3] -0.0106 | [13] 0.0129 | [14] -0.0904 | [15] -0.141 | [9] -0.00107 | [16] 0.0125 | [17] -0.199 | [18] -0.262 | [19] 0.0909 | [4] 0.03 | [5] 0.0337 | [20] -0.0432 | [6] -0.0188 | [11] -0.0185 | [10] -0.0569 | [7] 0.0277 | [8] 0.0973 | [21] -0.0431 | [12] -0.162
